Reference: PubChem BioAssay AID1345082 (National Center for Advancing Translational Sciences (NCATS), 2018)
The campaign covered roughly 94,000 compounds. About 4,000 (4.3%) were called active. The inconclusive results got no clear call from the source; some entries with a clear call stand among them for comparison. Calls follow the shape of the dose curve; as a rule, active = well fitted inhibition curve with a large enough effect; inconclusive = small, poorly fitted or top-dose-only effect; inactive = no such curve, though single readings can be large or run the other way. Potencies beside an inconclusive call are fits to weak or partial responses and may not hold up.

assay: Cytotoxic Profiling in NIH 3T3 Cell Line of Diverse Libraries Using Quantitative High-Throughput Screening; details: NIH 3T3 viability, CellTiter-Glo ATP luminescence, 48-72 h; activity change, negative = cytotoxicity: at 96.7 µM (top of the series); series mostly up to 96.7 µM; also: nearly all actives have a fitted effect of over 55% in size
Method in brief: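 Cytotoxicity is measured as loss of cellular ATP: NIH 3T3 cells (400/well) are exposed to compound for 48 or 72 hr at 37 °C, then CellTiter-Glo luminescence is imaged after 10 min at room temperature.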
% is scaled to controls: 0 for no effect and ±100 for the full control effect; potency is read from the fitted curve at half-maximal effect; tags tell the direction and shape of the fitted curve.

Row | Compound | activity change, negative = cytotoxicity | Potency | outcome
1 | Cc1ccc(CN2CCc3nc(C(=O)Nc4cccnc4)oc3CC2)o1 | inactive: -21.1% [at 138 µM] |  | 
2 | COc1ccc(CNC(=O)O[C@H]2COCCN(c3nc4ccccc4s3)C2)cc1 |  | inconclusive: 126 µM [inhibitor, single point] | 
3 | CC(C)N1CCC(CCN2C(=O)[C@H]3CN(S(=O)(=O)c4ccccc4)C[C@H]3C2=O)CC1 |  |  | inactive
4 | O=C1COCC2(CN1Cc1ccccc1)CN(C(=O)c1ccc(F)c(Cl)c1)C2 |  | active: 89.1 µM | 
5 | COC(=O)[C@@H]1Cc2c([nH]c3ccccc23)[C@H]2C[C@@H](NCCNC(C)=O)C[C@@H](c3ccccc3)N21 |  | active: 79.4 µM | 
6 | COc1ccc(NC(=O)CN2C(=O)NC3(CCOCC3)C2=O)c(OC)c1 |  |  | inactive
7 | CCOCCCNC(=O)C1CCc2ncc(-c3ccsc3)n2C1 (stereo not drawn) | inactive: -11.8% |  | 
8 | COC(=O)NC1CCN(Cc2ccc(-c3ccsc3)cc2)C1 (stereo not drawn) |  | inconclusive: 56.2 µM [inhibitor, partial curve, poor fit] | 
9 | COc1ncccc1-c1nc2cc(C(=O)NCc3ccc(F)cc3)ccc2o1 |  | inconclusive: 44.7 µM [inhibitor, partial curve, poor fit] | 
10 | Cc1nc(-c2ccccc2)n(Cc2cc(F)cc(F)c2)c(=O)c1CCO |  | inconclusive: 50.1 µM [inhibitor, partial curve, poor fit] | 
11 | CN(Cc1cc2n(n1)CCNC2)Cc1nc2ccsc2c(=O)[nH]1 |  | inconclusive: 89.1 µM [inhibitor, partial curve, poor fit] | 
12 | Cc1ccccc1CC(=O)N1CCC[C@H]1c1nc(-c2ccccc2)no1 |  | inconclusive: 50.1 µM [inhibitor, partial curve, poor fit] | 
13 | O[C@H]1CCC2CC1[C@@H](O)CN2CC(c1ccccc1)c1ccccc1 (stereo partly drawn) |  | inconclusive: 79.4 µM [inhibitor, single point] | 
14 | O=C(NCc1ccccn1)c1ccc2nnc(C3CCCC3)n2c1 | inactive: -9.71% [at 138 µM] |  | 
15 | Nc1nc(C(=O)N[C@H]2CCOC[C@H]2C2CCOCC2)cs1 | inactive: -6.11% |  | 
16 | O=C1NCCCCCCN(C(=O)NC2CCCCC2)[C@H]2C[C@H](C(=O)N3CCc4ccccc4C3)C[C@@H]12 | inactive: -21.1% |  | 
17 | O=C(c1ccco1)N1CC(c2nnc(-c3ccncc3)o2)C2(CCOCC2)C1 (stereo not drawn) |  |  | inactive
18 | COc1ccc(N2CCN(c3nc(C(=O)NCc4ccccc4C)cs3)CC2)cc1 |  | inconclusive: 35.5 µM [inhibitor, partial curve, poor fit] | 
19 | Cn1cc(-c2ccc3c(n2)CN(Cc2ccccc2)C(=O)CO3)cn1 |  | active: 39.8 µM | 
20 | CC#CCn1cc2c3c(cccc31)[C@H](CC(C)C)N[C@H](C(=O)NCCNC(C)=O)C2 |  | inconclusive: 126 µM [inhibitor, single point] | 
21 | O=C(C1CCCC1)N1CC2(CCN(C3COC3)C2)Cc2ccccc21 (stereo not drawn) | inactive: -13.9% |  | 
22 | CN(C)[C@H]1CCCCN(C(=O)c2ccc(CSc3ccccn3)cc2)C1 |  | inconclusive: 50.1 µM [inhibitor, partial curve, poor fit] | 
23 | OCC1(Cc2ccccc2)CCCN(Cc2cnn(-c3cccc(Cl)c3)c2)C1 (stereo not drawn) |  | active: 79.4 µM | 

Row | Compound | activity change, negative = cytotoxicity | Potency | outcome
24 | CS(=O)(=O)NC[C@H]1O[C@@H](CO)[C@@H](O)C1N1CCN(c2ccccc2)CC1 (stereo partly drawn) |  |  | inactive
25 | O=C(NCc1ccc(Cl)cc1)c1ccc2nnc(-c3ccc(Cl)cc3)n2c1 |  | inconclusive: 44.7 µM [inhibitor, partial curve, poor fit] | 
26 | CCOC(=O)C1=C(C)N=C2SC=C(CC(=O)NCC3CC3)N2C1c1ccccc1OC (stereo not drawn) | inactive: -16.2% |  | 
27 | Cc1ccccc1C(=O)NCCNC(=O)c1cccc(-c2ncccc2C#N)c1 | inactive: -13.9% |  | 
28 | O=C1CC2(CCN(C(=O)c3ccc(C(F)(F)F)cc3)CC2)Oc2ccccc21 |  | inconclusive: 35.5 µM [inhibitor, partial curve, poor fit] | 
29 | CC1CCC2(CC1)NC(=O)N(CC(=O)Nc1ccccc1Cl)C2=O (stereo not drawn) |  | inconclusive: 50.1 µM [inhibitor, partial curve, poor fit] | 
30 | CN(C)c1ccc(CN2CCn3c(nn(-c4cccc(Cl)c4)c3=O)C2)cc1 |  | inconclusive: 50.1 µM [inhibitor, partial curve, poor fit] | 
31 | CN1C(=O)C(CC(=O)N2CCCCC2)=C2CCCCC21 (stereo not drawn) | inactive: -5.04% |  | 
32 | CNC(=O)CN(C)Cc1cc(Cl)ccc1OCC(O)CN1CCCCCC1 (stereo not drawn) |  | inconclusive: 89.1 µM [inhibitor, single point] | 
33 | CN1CCC(N2CC[C@H](CO)[C@H](N(C)C)C2)CC1 | inactive: 3.26% |  | 
34 | COc1ccc(CN2Cc3[nH]nc(-c4cccc(C(F)(F)F)c4)c3CC2=O)cc1 |  | inconclusive: 56.2 µM [inhibitor, partial curve, poor fit] | 
35 | CCOC(=O)C1(Cc2ccccc2F)CCCNC1 (stereo not drawn) |  | inconclusive: 50.1 µM [inhibitor, partial curve, poor fit] | 
36 | COCCNc1ncccc1-c1noc([C@@H]2CCCN2Cc2cccc(C#N)c2)n1 |  | inconclusive: 79.4 µM [inhibitor, partial curve] | 
37 | O=[S+]1([O-])NCC2(CCN(Cc3c(F)cccc3F)C2)Oc2ccncc21 (stereo not drawn) | inactive: -0.517% |  | 
38 | CC(NC(=O)Cc1ccc(N(Cc2ccc(F)cc2)C(=O)c2ccco2)cc1)c1ccccc1 (stereo not drawn) |  | inconclusive: 44.7 µM [inhibitor, partial curve, poor fit] | 
39 | O=C(CC1CCCN(c2cnn(CC3CC3)c(=O)c2)C1)NCc1ccncc1 (stereo not drawn) |  | inconclusive: 70.8 µM [inhibitor, single point] | 
40 | CC(C)NC(=O)C1(CCO)CC12CCOCC2 (stereo not drawn) | inactive: -1.11% |  | 
41 | O=C(NCCc1ccc(Cl)cc1)c1nc(-c2ccc(Cl)cc2)c2ccccn12 | inactive: -28.9% |  | 
42 | COCCN(C)C(=O)c1ccc2c(c1)C1(CCN(CC3CC3)C1)CN2Cc1ccccc1 (stereo not drawn) |  | inconclusive: 100 µM [inhibitor, partial curve, poor fit] | 
43 | Cc1ccc(-n2c(C3CCN(C(=O)c4ccc(F)cc4Cl)CC3)n[nH]c2=O)cc1 |  | inconclusive: 70.8 µM [inhibitor, single point] | 
44 | CCNC(=O)[C@@H]1CCCN1C1(C(=O)NC)CCOCC1 |  |  | inactive [at 174 µM]
45 | COc1ccccc1NC(=O)Cn1c(-c2ccc(Cl)cc2)nc(C)cc1=O |  | inconclusive: 56.2 µM [inhibitor, partial curve, poor fit] | 
46 | CCc1noc(-c2cn(C3CCN(C(=O)c4ccc(C)cc4C)C3)nn2)n1 (stereo not drawn) |  | inconclusive: 39.8 µM [inhibitor, partial curve, poor fit] | 

Row | Compound | activity change, negative = cytotoxicity | Potency | outcome
47 | COc1ccc(-c2[nH]nc3ncc(-c4cncnc4)nc23)cc1F |  | inconclusive: 79.4 µM [inhibitor, partial curve] | 
48 | O=C1CC(c2ccccc2)N(C(=O)CNC(=O)c2nccc3ccccc23)CCCCCCN1 (stereo not drawn) |  | inconclusive: 79.4 µM [inhibitor, partial curve, poor fit] | 
49 | COCCNc1ccc(-c2noc([C@@H]3CCCN3Cc3ccccc3F)n2)cn1 | inactive: -14.9% [at 138 µM] |  | 
50 | O=C([C@H]1CCCN1C(=O)c1ccc(Cl)cn1)N1CCC(N2CCOC2=O)CC1 | inactive: -3.49% |  | 
51 | Cc1ccc(C(=O)N2CCCn3cc(-c4cccc(C#N)c4)nc32)cc1 |  |  | inactive
52 | CC(=O)N1CCCN(Cc2nnc(C(=O)N3CCC[C@@H]3c3cccc(F)c3)n2-c2cccnc2)CC1 |  | active: 22.4 µM | 
53 | O=C(c1ccc(Cl)nc1)N1CCN(Cc2ccccc2-c2ccccc2F)CC1 |  | inconclusive: 44.7 µM [inhibitor, partial curve, poor fit] | 
54 | CCCNC(=O)CN1CN(c2ccccc2)C2(CCN(C(=O)Nc3ccc(CC)cc3)CC2)C1=O |  | inconclusive: 50.1 µM [inhibitor, partial curve, poor fit] | 
55 | CC(=O)NCCNC(=O)c1ccc(-c2cccc(C(F)(F)F)c2)cc1 | inactive: -27.6% |  | 
56 | CC1(COc2ccccc2)COc2ccc(C(=O)N3CCN(c4ccccn4)CC3)cc2N1 (stereo not drawn) |  | inconclusive: 50.1 µM [inhibitor, partial curve, poor fit] | 
57 | CCNC(=O)NC[C@H]1Cn2c(-c3cccc(Cl)c3)cnc2CO1 |  | inconclusive: 89.1 µM [inhibitor, partial curve] | 
58 | COc1cccc(N2C(=O)NC(=NC3CCCCC3)C23CCCN(Cc2ccccc2)C3)c1 (stereo not drawn) |  | inconclusive: 44.7 µM [inhibitor, partial curve, poor fit] | 
59 | Cn1ncc2c(C(=O)NCc3ccccc3Cl)cc(-c3ccc(C(F)(F)F)cc3)nc21 | inactive: -32.9% |  | 
60 | CN(C)C(=O)N1CCN(c2nccc(Nc3ccccc3F)n2)CC1 | inactive: -29.9% |  | 
61 | CC(C)CNC(=O)c1cc(C2CC2)nc2c1c(C1CCCN1)nn2-c1ccccc1 (stereo not drawn) |  | active: 17.8 µM | 
62 | COC(=O)c1cn([C@H]2CO[C@H]3[C@@H]2OC[C@@H]3NC(=O)NCc2ccccc2)nn1 |  | inconclusive: 100 µM [inhibitor, partial curve] | 
63 | CC(C)NC(=O)c1cn2cc(-c3cccnc3)sc2n1 |  | inconclusive: 112 µM [inhibitor, single point] | 
64 | CN(Cc1ccccc1)C(=O)C1=NO[C@@H]2CN(Cc3ccc(F)cc3)C[C@H]12 |  | inconclusive: 79.4 µM [inhibitor, partial curve, poor fit] | 
65 | COc1ccc(Cn2c3c(c(=O)n2Cc2ccccc2)CCN(CC2CCOC2)C3)cc1 (stereo not drawn) |  | active: 28.2 µM | 
66 | COc1ccc(NC(=O)[C@@H]2C[C@H](c3ccc(F)cc3)N(Cc3csc(C)n3)C2)cc1OC |  | inconclusive: 70.8 µM [inhibitor, partial curve, poor fit] | 
67 | COc1ccc(Nc2ccnc(N3CCC(C(=O)NCc4cccs4)CC3)n2)cc1 |  | inconclusive: 44.7 µM [inhibitor, partial curve, poor fit] | 
68 | COc1cccc(CNC(=O)c2cn3cc(-c4ccccc4)sc3n2)c1 |  | inconclusive: 44.7 µM [inhibitor, partial curve, poor fit] | 
